# Laboratory results from the supplement of paper PMC12217912.
# This is one part of the list. The full chains were built here from the parent and the listed change. Inactive controls read about 0.05.
# B1: TEV protease; numbered along this chain (parent)
# chain: MGESLFKGPRDYNPISSSICHLTNESDGHTTSLYGIGFGPFIITNKHLFRRNNGTLVVQSLHGVFKVKDTTTLQQHLVDGRDMIIIRMPKDFPPFPQKLKFREPQREERICLVTTNFQTKSMSSMVSDTSCTFPSGDGIFWKHWIQTKDGQCGSPLVSTRDGFIVGIHSASNFTNTNNYFTSVPKNFMELLTNQEAQQWVSGWRLNADSVLWGGHKVFMVKPEEPFQPVKEATQL
# Variants of: B1
# Test: raw area under fraction-flipped curve 0-4 h after induction (AUC4h, not background-subtracted), DNA-recorder readout of cleavage of the substrate (dimensionless); higher = more cleavage of the substrate by the protease variant
# Conditions: temperature: 34 °C; time window: 0-4 h after rhamnose induction
# 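Also: Bxb1 expression induced with 0.2% (w/v) L-rhamnose at OD600 near 0.5, cultures sampled hourly, flipped fraction per protease–substrate barcode pair counted by paired-end Illumina sequencing.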
Variant,area with substrate ENLYFQC,area with substrate ENLYFQD,area with substrate ENLYFQE,area with substrate ENLYFQF,area with substrate ENLYFQG,area with substrate ENLYFQH,area with substrate ENLYFQI,area with substrate ENLYFQK,area with substrate ENLYFQL,area with substrate ENLYFQM,area with substrate ENLYFQN,area with substrate ENLYFQP,area with substrate ENLYFQR,area with substrate ENLYFQS,area with substrate ENLYFQT,area with substrate ENLYFQV,area with substrate ENLYFQW,area with substrate ENLYFQY,area with substrate ENLYFQQ
K46L,0.104,0.0602,0.0629,0.0619,0.108,0.0755,0.0554,0.065,0.0635,0.0545,0.0673,0.0511,0.0541,0.0835,0.0633,0.0645,0.0576,0.0587,
K46H,0.0539,0.0531,,0.0589,0.0618,0.0574,,0.0595,0.0597,,0.0337,0.0499,,0.0621,,0.0571,,0.016,
K46Q,0.0764,,,,0.115,,0.0471,,0.0583,0.0718,0.0638,,0.0643,0.101,0.0508,0.0655,,,
S169R,0.0755,0.0687,,,0.147,,,,0.0632,,0.0632,0.0527,0.0829,0.0611,0.0664,0.0469,0.0622,,0.0628
F133Y,0.125,,,0.0414,,0.0791,,0.0706,0.0696,,0.0622,,0.0573,0.107,0.0786,,0.066,,
D69I,0.0872,0.0605,0.0479,,0.0706,,,,0.0542,,,,,0.0703,0.0507,0.0313,,0.0642,
L77V,0.0873,,,0.0518,0.0561,,,0.0454,0.0598,0.0755,,,0.07,0.0825,0.0557,0.0669,0.0731,,0.0604
N175T,0.0759,0.073,,,0.0723,0.0552,,,,,,,0.0679,0.0678,0.0733,,,,0.0589
Q151W,0.107,0.0571,,0.0615,0.0802,0.0636,0.06,0.0643,0.0683,,0.0596,,0.0565,0.088,0.0614,,0.0599,0.0717,
Q151P,0.0535,0.0529,,0.048,0.0534,0.089,0.0703,0.06,0.0611,0.0587,0.0838,,0.058,0.0621,,,,0.046,
N45A,0.108,0.0728,,,0.0938,0.0718,,0.0663,0.0559,0.076,0.0685,0.054,,0.0861,0.0509,0.0546,0.0622,0.0695,0.0627
S121L,0.111,,,0.0684,0.124,0.0765,0.0616,0.0779,0.0702,0.0955,0.0509,,0.0674,0.105,0.0661,0.0552,,0.0763,
S121V,0.108,0.0347,,0.0577,0.102,,0.0596,0.0672,0.0529,0.0557,0.0645,0.0331,0.0533,0.102,0.0681,,0.0666,0.0979,
G213W,0.0529,,0.0482,,0.0624,0.0491,0.0576,0.041,0.0564,0.0555,0.0605,0.0631,0.0561,0.0574,0.0541,0.0542,0.0584,0.064,0.0655
F92A,0.101,0.0678,0.0346,0.0682,,0.0887,,,,0.0777,0.0791,0.0514,0.0531,0.0954,,0.0634,0.0596,0.0852,0.0662
S17K,0.145,0.08,0.0553,0.0704,0.101,0.0799,0.025,0.076,0.0662,0.0899,0.0574,0.059,0.0651,0.105,0.0662,0.0724,0.053,0.084,
G28R,0.0859,0.0652,,,,,0.0712,0.0547,,0.0754,0.0388,,0.0788,0.0869,0.0666,0.0579,0.0678,0.0786,0.076
T115W,0.133,0.0847,,,,,0.0816,,0.0764,0.076,,0.0627,,0.0983,0.0788,0.0629,,,
D79I,0.103,,,,,,,,,0.0957,0.0824,,0.0512,0.0923,0.0566,,0.0674,,
I86K,0.0368,,,0.0272,,0.049,0.043,,0.0387,0.0361,0.0265,0.0306,0.0217,0.0395,0.0352,,0.032,0.0322,0.0453
M125K,0.128,0.0774,,0.081,0.111,0.09,,0.0677,0.0438,0.0912,0.0765,,0.0631,0.107,,,0.0686,0.0731,
V183E,0.0459,,,,,0.0495,,0.0572,0.019,0.0568,,0.0695,,0.0489,0.046,,0.051,,
F95V,0.089,,0.0476,,,,,0.0396,0.0568,,,,,0.0829,0.0524,,0.0631,0.0445,0.0559
I43P,0.0548,0.0407,0.0429,,0.0542,0.0367,0.0419,0.0414,0.0403,0.0509,0.0373,,0.0378,0.0462,0.0363,,0.0348,0.0448,0.0497
I43T,0.0794,,,0.0686,0.0683,0.0693,0.0511,,0.0431,0.0639,0.0601,0.0462,0.0526,0.0775,0.049,0.0556,0.0691,0.0581,
I43C,0.0936,0.0586,0.052,0.0477,0.0839,,0.0634,0.0563,0.0538,0.0678,0.07,0.0583,0.0498,0.0845,0.0631,,0.0452,0.0697,0.0557
H215R,0.0623,,0.0629,,0.0819,0.063,0.0483,0.0621,0.0583,,0.0654,0.0667,0.055,0.074,,0.0596,0.0645,,0.0536
